Publication PMC10424213
These are yes or no findings as the source states them, for the method shown. In cells and extracts the contact can be indirect. Some binding calls cover weakened binding; strength is not graded here. For some assays here: Sequences can lack the tags named with a protein.

Chains of the proteins cited; added tags and fusions are not shown. Residues count along the entry.
UniProt P03661, residues 19-424: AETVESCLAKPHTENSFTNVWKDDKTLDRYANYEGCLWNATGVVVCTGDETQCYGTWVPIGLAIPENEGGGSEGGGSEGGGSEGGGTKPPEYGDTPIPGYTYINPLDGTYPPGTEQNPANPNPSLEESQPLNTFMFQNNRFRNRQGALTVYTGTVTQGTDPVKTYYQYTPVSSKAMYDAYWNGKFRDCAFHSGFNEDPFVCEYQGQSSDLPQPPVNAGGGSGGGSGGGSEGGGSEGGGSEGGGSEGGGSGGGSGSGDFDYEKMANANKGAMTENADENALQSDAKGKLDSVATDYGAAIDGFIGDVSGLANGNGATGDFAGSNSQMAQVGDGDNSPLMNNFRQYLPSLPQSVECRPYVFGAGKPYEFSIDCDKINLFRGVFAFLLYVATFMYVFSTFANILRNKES

B1: TolR overproduced from a vector (protein, UniProt P0ABV6 1-142)
chain: MARARGRGRRDLKSEINIVPLLDVLLVLLLIFMATAPIITQSVEVDLPDATESQAVSSNDNPPVIVEVSGIGQYTVVVEKDRLERLPPEQVVAEVSSRFKANPKTVFLIGGAKDVPYDEIIKALNLLHSAGVKSVGLMTQPI
B2: TolQ with a C-terminal hemagglutinin (HA) tag (protein, UniProt P0ABU9 1-230)
chain: MTDMNILDLFLKASLLVKLIMLILIGFSIASWAIIIQRTRILNAAAREAEAFEDKFWSGIELSRLYQESQGKRDNLTGSEQIFYSGFKEFVRLHRANSHAPEAVVEGASRAMRISMNRELENLETHIPFLGTVGSISPYIGLFGTVWGIMHAFIALGAVKQATLQMVAPGIAEALIATAIGLFAAIPAVMAYNRLNQRVNKLELNYDNFMEEFTAILHRQAFTVSESNKG

Experiments:
[1] = biological target: native pIII protein, full length, produced in E. coli W3110 (fd phage) (UniProt P03661); assay: co-IP
[2] = biological target: pIII fused to the adenylate cyclase T18 domain, produced in E. coli W3110 (fd phage) (UniProt P03661); assay: pull-down

Binder | binding [1] | binding [2]
B1 | binds | –
B2 | – | binds
